Measurements published in PubChem BioAssay AID1963576 (National Center for Advancing Translational Sciences (NCATS), 2024).
Among all 46,000 compounds or so, about 60 (0.1%) were called active. Roughly 3% stayed inconclusive and do not appear here. The call rests on the fitted dose curve; in most records, active means well fitted inhibition curve with a large enough effect; inconclusive means small, poorly fitted or top-dose-only effect; inactive means no such curve, though single readings can be large or run the other way. Some of the results follow.

Assay: Primary qHTS assay for Inhibitors of ovarian cancer metastasis using an organotypic tumor microenvironment (TME) model. Further: nearly all actives have a fitted effect of over 65% in size.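 On activity change, negative = inhibition: plate controls were DMSO wells for no effect and tomatine positive control wells for full effect.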
Conditions: SKOV3ip1-GFP adhesion/invasion on 3D omental model, fluorescence; series mostly up to 45.8 µM; activity change, negative = inhibition: at the top concentration
In short: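 A 3D layer of primary human omental fibroblasts, mesothelial cells, fibronectin and collagen I, grown 48 hr, received SKOV3ip1-GFP cells in serum-free medium plus compounds at 0.36-46 umol/L. After 2 hr RT and 16 hr 37 C, fixed adherent GFP cells were counted; normalized to DMSO and tomatine.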

outcome, inactive:
Cc1ccc(NC(=O)CCc2c(C)nc3c(-c4ccccc4)c(C)nn3c2C)c(C)c1
CCC1=Nc2cc(C(=O)NC(C)c3ccccc3)ccc2Sc2ccc(Cl)cc21 (configuration not stated)
O=C(CSc1nccn1-c1cccc(Cl)c1)Nc1cccc(C(F)(F)F)c1
COC(=O)c1ccccc1NC(=O)CN(c1ccccc1OC)S(C)(=O)=O
CC(C)c1ccc(NC(=O)c2ccc(F)c(S(=O)(=O)N3CCCC3)c2)cc1
CC1CCN(c2nnc(-n3cccc3CNc3cccc(F)c3)s2)CC1
CCc1ccccc1NC(=O)N1CCN(c2nnc(C)c3c(C)n(-c4ccccc4)nc23)CC1
Cc1cccc(NC(=O)C2CCN(S(=O)(=O)c3cccc4nsnc34)CC2)c1
CCCOc1ccc(-c2nc3ccccc3c(=O)o2)cc1
O=c1cc(-c2ccccc2)nc(SCc2nc(-c3ccc(C(F)(F)F)cc3)no2)[nH]1
Cc1c(C(=O)Nc2nc(-c3ccc(F)cc3)ns2)oc2ccc(Br)cc12
CC(C)c1ccc(NC(=O)C2CCN(S(=O)(=O)c3cccc4nsnc34)CC2)cc1
COc1ccc(CNC(=O)Cn2c(=O)oc3cc(S(=O)(=O)N4CCCCCC4)ccc32)cc1
COc1ccc2c(c1)cc(CNc1ccc(OC)c(OC)c1)c(=O)n2CC(=O)Nc1ccc(F)cc1
Cc1cc(C)n2nc(SCC(=O)Nc3cc(Cl)ccc3C)nc2n1
CC1=C(C(N)=O)C(c2ccc(C(C)C)cc2)n2nc(SCc3ccccc3)nc2N1 (configuration not stated)
COc1ccc(CCNc2nc(-c3ccc(C)cc3)cc(C(F)F)n2)cc1OC
Oc1c(C(c2ccccc2F)N2CCOCC2)sc2nc(-c3ccco3)nn12 (configuration not stated)
COC(=O)c1ccc(NC(=O)CCc2c(C)nc3c(c(C)nn3-c3ccc(C)cc3)c2C)cc1
Cc1nc2c(C(=O)NCc3ccccc3Cl)c[nH]n2c(=O)c1Cc1cccc(Cl)c1
CCN(c1ccccc1)S(=O)(=O)c1ccc2[nH]cc(C(=O)NC3CCCCC3)c(=O)c2c1
CCOc1ccccc1-n1c(C)nc2cc(C(=O)O)ccc21
COc1cccc(NC(=O)CSc2cc(=O)n(C)c3ccc(Cl)cc23)c1
Cc1cc(=O)[nH]c2nnc(SCc3ccc(Cl)c(Cl)c3)n12
CCOC(=O)N1CCc2c(sc(NCc3sccc3C)c2C(=O)Nc2cc(OC)ccc2OC)C1
CCCCN(C)CCCNC(=O)CN1C(=O)COc2ccc(S(=O)(=O)N3CCC(C)CC3)cc21
Cc1ccc(CCNC(=O)C(CC(C)C)NS(=O)(=O)c2ccc3c(c2)oc(=O)n3C)cc1 (configuration not stated)
Cn1cnc(S(=O)(=O)N2CCCC(C(=O)NCc3ccccc3Cl)C2)c1 (configuration not stated)
COc1ccc(NC(=O)c2c(C(=O)Nc3ccccc3)sc3nc(C)cc(=O)n23)cc1
CCOc1ccc(C(=O)c2cn(CC(=O)Nc3ccc(F)c(F)c3)c3cc4c(cc3c2=O)OCCO4)cc1
CCOc1ccc(C2C(=O)N(C3CCCCC3)CC(=O)N2CCC2=CCCCC2)cc1OC (configuration not stated)
COc1cccc(NC(=O)CCc2nc(-c3cccs3)no2)c1
CSc1ncc(Cl)c(C(=O)Nc2c(C(=O)c3ccc(C)c(F)c3)oc3ccccc23)n1
Cc1cccc(OC(=O)c2cc(-c3ccc4c(c3)OCCO4)on2)c1C
COc1ccc(-c2noc(-c3nnn(-c4ccc(C(C)C)cc4)c3C)n2)cc1OC
O=C(Nc1ccccc1)c1ccc2c(O)c(S(=O)(=O)c3ccc(Cl)cc3)c(=O)[nH]c2c1

Activity change, negative = inhibition, inactive:
COCCCNC(=O)CN1C(=O)COc2ccc(S(=O)(=O)N3CCCCCC3)cc21 -1.85%
COc1ccc2c(c1)CCc1sc(NC(=O)c3ccc(Cl)cc3)nc1-2 6.49%
CN(Cc1ccccc1)C(=O)CCS(=O)(=O)c1cc(Br)cc2c1N(C(=O)C1CC1)CC2 3.64%
Cc1ccc(NC(=O)CSc2nc(-c3ccc(F)cc3)nc3c2Cc2c(CO)cnc(C)c2O3)cc1C 13.3%
CC1CCN(C(=O)Cn2cc(SCc3ccccc3)c3ccccc32)CC1 1.03%
O=C(COc1ccccc1F)Nc1ccccc1OCc1cc(=O)n2ccccc2n1 -8.17%
COc1ccccc1OCC(=O)Nc1nnc2n1CCS2 8.01%
CCCc1nnc(N2C(=O)c3oc4ccc(F)cc4c(=O)c3C2c2ccc(C(=O)OC)cc2)s1 (configuration not stated) -14.2%
CCOc1ccc(-n2cc(C(=O)Nc3ccccc3OCC)c3cc(OC)c(OC)cc3c2=O)cc1 -5.02%
COc1cc2ccccc2cc1C(=O)N1CCN(c2nc3c(C)cc(C)cc3s2)CC1 -25%
O=C(C1CCC1)N1CCc2cc(S(=O)(=O)N3CCN(c4ccccc4)CC3)ccc21 0.306%
Cc1ccc2nc(-c3ccccc3O)c(Nc3ccccc3C)n2c1 -3.98%
CC1CCN(C(=O)Cn2cc(SCc3cccc(F)c3)c3ccccc32)CC1 -5.71%
CCOC(=O)c1c(NC(=O)CS(=O)(=O)c2ccc(C)cc2)sc2c1CCC(C)C2 (configuration not stated) 3.45%
CCC(C)NC(=O)Cn1c(=O)n(CC2CCC(C(=O)NC)CC2)c(=O)c2sccc21 (configuration not stated) 7.68%
CC(C)(C)c1ccc(-c2nc3cc(NC(=O)c4cc5ccccc5o4)ccc3o2)cc1 -13.5%
COc1ccc(CNC(=O)CCc2cn(Cc3cc(C)ccc3C)c3ccccc23)cc1OC 5.29%
O=C(Cn1ccn(-c2cccc(Cl)c2)c(=O)c1=O)NCCc1ccccc1 -3.39%
COc1ccc(NC(=O)NC2COc3ccccc3C2)c(OC)c1 (configuration not stated) -11%
COc1ccc(N2CCN(C(=O)CCc3c(C)nc4c(-c5ccccc5)c(C)nn4c3C)CC2)cc1 -11.5%
COc1ccccc1CNC(=O)CCCCn1c(=O)c2ccccc2n(Cc2c(C)cc(C)cc2C)c1=O 3.98%
Cc1cn([C@H]2C=C[C@@H](CO)O2)c(=O)[nH]c1=O -2.41% [at 92.2 µM]
COc1ccccc1CNC(=O)CCc1c(C)c2ccc(OC)c(C)c2oc1=O 8.55%
Cc1c(C(=O)Nc2ccc(F)c(F)c2)oc2ccc(S(=O)(=O)N3CCCCC3)cc12 -0.859%
O=S(=O)(NCC(c1ccco1)S(=O)(=O)c1ccccc1)c1ccccc1 (configuration not stated) -1.53%
CN(CC(=O)Nc1cccc(Cl)c1)S(=O)(=O)c1ccc2[nH]c3c(c2c1)CCCC3 -6.29%
CCOc1ccc(S(=O)(=O)N(CC(=O)Nc2cccnc2)c2ccccc2)cc1 7.77%
Cc1cc(N2CCN(C)CC2)nc2ccc(NC(=O)Nc3ccccc3Br)cc12 -9.93%
COc1ccc(CCNC(=O)c2ccc3c(c2)N(Cc2ccc(C)cc2)CCS3)cc1OC -10.8%
Cc1cccc(NC(=O)c2oc3c(c2C)-c2[nH]ncc2CC3)c1C 0.239%
CCOC(=O)C1CCN(c2c(C(=O)c3ccc(OCC)cc3)cnc3ccc(OC)cc23)CC1 -1.88%
CCc1nn2c(-c3ccccc3OC)ccnc2c1-c1ccc(F)cc1 32.9%
CCn1c(=NC(=O)c2ccc(S(=O)(=O)N3CCCCC3)cc2)sc2cccc(OC)c21 -21.6%
CCOC(=O)c1cccc(NC(=O)CC(c2cc(OC)c(OC)c(OC)c2)N2Cc3ccccc3C2=O)c1 (configuration not stated) 8.12%
COc1c(C)cc(S(=O)(=O)Nc2cccc(-c3ccc(N4CCOCC4)nn3)c2)c(C)c1C 14.6%
CCOc1ccc(NC(=O)CN2CCN(Cc3ccccc3)S2(=O)=O)cc1 -3.52%
Cc1c(Cl)cccc1NC(=O)CC(c1cccs1)N1Cc2ccccc2C1=O (configuration not stated) -16.6%
CC(NC(=O)CSc1n[nH]c(-c2ccccc2Cl)n1)c1nc2ccccc2n1C (configuration not stated) -28%
CCCCNC(=O)C1CCN(C(=O)N2CC(C)Oc3ccc(Cl)cc32)CC1 (configuration not stated) 9.98%
N#C/C(=C\c1ccc(F)cc1)C(=O)NCC1CCCO1 (configuration not stated) -6.8%
CCOc1ccccc1NC(=O)Cc1coc2c(C)c(C)ccc12 3.12%
CCOc1ccccc1NC(=O)CN1C(=O)COc2ccc(S(=O)(=O)N3CCCCCC3)cc21 6.87%
Cc1cccc(NC(=O)c2ccc3nc(CCc4ccccc4)oc3c2)c1C -5.81%
Cc1cccc(N2CCN(c3ccc(NC(=O)c4ccccc4)cc3C(=O)O)CC2C)c1 (configuration not stated) 0.319%
COc1ccc(-c2noc(CSc3nc(N)cc(=O)[nH]3)n2)cc1 -9.05%
Cc1cc2[nH]c(=O)c(=O)[nH]c2cc1S(=O)(=O)Nc1ccc(OC(F)(F)F)cc1 -4.82%
COc1cccc(CNC(=O)C(Cc2ccccc2)NS(=O)(=O)c2ccc3c(c2)oc(=O)n3C)c1 (configuration not stated) 4.7%
COc1ccccc1C(=O)Nc1onc2c1CCCC2 0.159%
CCOC(=O)c1ccc(NC(=O)CN2Cc3ccccc3C2=O)cc1 2.56%
Cc1cc(O)c2c(C)c(CC(=O)N3CCCCC3)c(=O)oc2c1 16.8%
CCCS(=O)(=O)N1CCC(N2CCN(Cc3ccc(F)cc3)C(=O)C2=O)CC1 -0.51%
Cc1cc(Nc2cccc(Cl)c2)nc2ccc(NC(=O)c3cccc(N(C)C)c3)cc12 -3.89%
O=C(NCc1ccc(F)cc1)c1ccc2c(c1)nc1n2CCCCC1 -2.04%
Cc1ncc(CO)c2c1Oc1nc(-c3ccc(F)cc3)nc(SCc3ccc(F)cc3Cl)c1C2 4.35%
Cc1ccccc1Cn1c2ccccc2c2cnn(CC(=O)N3CCC(C)CC3)c(=O)c21 -5.25%
Cc1ccc(S(=O)(=O)NCC(Nc2cccc(Cl)c2)c2ccccc2)cc1 (configuration not stated) -4.59%
CCOc1ccc(-c2cccc(NS(=O)(=O)c3ccccc3C(F)(F)F)c2)nn1 -8.25%
Cc1ccc(NC(=O)Cn2cc(C(=O)c3ccco3)c3ccccc32)cc1 -5.95%
O=S(=O)(c1ccc2nc(Nc3cccc(F)c3)ccc2c1)N1CCCC1 -2.82%
CCn1cc(C(=O)N2CCN(c3ccc(OC)cc3)CC2)c2cc(OC)c(OC)cc2c1=O 2.46%
CCOc1ccccc1C1C(C(=O)Nc2ccccc2)=C(C)Nc2c(C(=O)Nc3ccc(F)cc3)cnn21 (configuration not stated) -0.955%
